# Measurements as given in the supplement of paper PMC3334620.
# The full ranking holds about 33,000 sequences; the median of “E-score (-0.5 to 0.5)” is about -0.011, and the highest 2% start at about 0.28. Some of the results follow.
# Biological target: T1, Gcr1 (UniProt P07261)
# T1 sequence: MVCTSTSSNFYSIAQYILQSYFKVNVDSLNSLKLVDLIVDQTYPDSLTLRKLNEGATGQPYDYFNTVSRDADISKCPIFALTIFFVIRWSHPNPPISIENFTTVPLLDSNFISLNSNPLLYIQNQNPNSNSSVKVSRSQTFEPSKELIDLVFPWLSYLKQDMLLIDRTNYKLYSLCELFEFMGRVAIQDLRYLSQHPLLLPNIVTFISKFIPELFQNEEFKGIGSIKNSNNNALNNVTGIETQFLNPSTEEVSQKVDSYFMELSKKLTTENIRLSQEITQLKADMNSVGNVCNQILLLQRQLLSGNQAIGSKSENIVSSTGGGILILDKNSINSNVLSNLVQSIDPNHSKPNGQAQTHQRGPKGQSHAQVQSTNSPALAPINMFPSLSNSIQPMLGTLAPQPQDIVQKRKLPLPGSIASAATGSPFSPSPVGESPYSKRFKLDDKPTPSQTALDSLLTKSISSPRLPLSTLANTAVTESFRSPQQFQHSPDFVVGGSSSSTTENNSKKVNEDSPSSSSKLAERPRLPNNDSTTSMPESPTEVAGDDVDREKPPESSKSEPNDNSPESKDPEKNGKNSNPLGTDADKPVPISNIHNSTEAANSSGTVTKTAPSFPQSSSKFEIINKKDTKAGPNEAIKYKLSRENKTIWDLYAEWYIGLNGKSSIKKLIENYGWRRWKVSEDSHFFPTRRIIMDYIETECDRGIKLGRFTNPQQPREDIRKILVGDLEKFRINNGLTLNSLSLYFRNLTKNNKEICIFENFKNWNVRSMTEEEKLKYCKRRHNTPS
# Assay: PBM E-score (8-mer binding enrichment) (E-score (-0.5 to 0.5)); higher = stronger / more preferred TF binding; most listed sequences are background and not binding sites
# Settings: protein concentration: 100 nM; construct: GST-full length
# Summary of the method: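 GST-tagged yeast TFs (full-length or DNA-binding domain) were made by PURExpress in vitro transcription/translation and applied at about 100-200 nM to universal all-10-mer Agilent arrays. The arrays were made double-stranded by primer extension, on fresh or once-stripped slides. Bound protein was detected with fluorescent anti-GST, and scans were normalised with masliner. Each ungapped eight-base word, pooled with its reverse complement, received an E-score (modified Wilcoxon-Mann-Whitney statistic) from the Universal PBM Analysis Suite.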
row,Sequence,PBM E-score
1,ACCAACAT,0.0288
2,CTGTGTAC,-0.0302
3,CTATCGAG,-0.167
4,CCGTACTC,0.0417
5,GGTCACCA,-0.00517
6,AAATAGTA,0.0682
7,ACTGTCTG,-0.0381
8,GTCAACAA,-0.00849
9,AGCCAGCC,-0.0691
10,CCAAAACC,0.0659
11,GCCTGCCA,-0.0255
12,CATGTACC,0.194
13,AGGCTAAT,-0.0275
14,CACGCTTA,-0.17
15,AATGCTGT,-0.115
16,CCCGAAAA,0.162
17,AGTGTGCC,-0.0804
18,CGGGGGTA,-0.0719
19,GGCAGTAA,-0.0223
20,GCAGCACA,-0.114
21,ACCCGGAG,0.0468
22,GCCGACAC,0.018
23,GAGGATTA,-0.13
24,GAACTTGC,0.0507
25,CTTCGATA,0.0457

row,Sequence,PBM E-score
1,ACTGTAAA,0.0981
2,AAACCAAA,0.066
3,ATGGGTAG,-0.0578
4,CATAAGAC,-0.123
5,TGACCGAA,-0.00849
6,ACTCAGCC,-0.0985
7,CCGTGCTA,0.0646
8,ATACGTAG,0.0454
9,GTTCTGCA,-0.0135
10,GAGCATAA,0.0398
11,AAATTTAA,0.15
12,AATTTCTG,0.182
13,ATGCTACG,0.0159
14,AAACGTAC,-0.07
15,CCCAGTCG,-0.078
16,TCTCGTAA,0.114
17,GTATTCAC,-0.0109
18,TGCTCCAA,-0.0556
19,ATCACAGG,0.0448
20,ACATGAAC,-0.0493
21,CAAGCGCA,-0.128
22,CTTCTGAC,-0.158
23,ACGAGCTG,-0.0505
24,CCATAGGC,-0.00913
25,CAGGCTGA,-0.143

row,Sequence,PBM E-score
1,GAATGCTC,-0.194
2,CGCCTCTC,0.0744
3,TAAAGACA,-0.255
4,CCACCAAC,-0.0849
5,ATGAATGC,0.0536
6,TCGCTACA,0.0704
7,ACCGGCGT,0.0406
8,ATGACAAT,-0.14
9,CTCATAAC,0.0143
10,AGACCTCT,-0.26
11,ACGCCTTC,0.134
12,ATAGGTAA,-0.0707
13,CACGAATG,0.0475
14,CTTGAGAC,-0.19
15,CATGACCG,-0.0661
16,CGCAAAAC,0.0377
17,ACTGCACT,-0.285
18,CGAATCGC,-0.147
19,AGGGTGAT,-0.0437
20,CTCACCGC,-0.0683
21,GCACCCGC,0.271
22,AGTTAATA,0.103
23,AGACAGCT,-0.133
24,ATAGGTCG,0.0752
25,ACACAAGG,-0.0735

row,Sequence,PBM E-score
1,GGGAAGAA,-0.14
2,CATTATTC,-0.0198
3,TCCTTCCA,-0.116
4,ATCCTGCG,-0.199
5,CTTTGAGC,-0.149
6,AGTCGCCA,0.045
7,CTCTTAAG,-0.0992
8,ATCCCCGG,0.124
9,CGAAGACC,0.0336
10,CATCGTCG,-0.0261
11,ACTGCACA,-0.211
12,ATGCCCAT,-0.0364
13,ACGCGGCG,0.146
14,GACGATCC,-0.0984
15,ACCTTTCA,-0.117
16,AAGTGCCC,-0.0109
17,CTATGGGA,0.0373
18,CTAATCTA,-0.019
19,CTGCTGAC,0.0286
20,GAACACGC,0.0995
21,ATCATAGC,-0.194
22,AGAACAGC,-0.0978
23,GAACTACC,-0.0513
24,TGACGTCA,-0.0394
25,AAACCATG,0.0732

row,Sequence,PBM E-score
1,GTCCTAGA,-0.0661
2,CTCGGAGA,0.00453
3,AAATCGGG,0.212
4,ATATCTAA,-0.054
5,TCTTAAGA,0.09
6,GATACAGC,0.16
7,CTGATTGC,0.0905
8,ACGCTCAC,0.016
9,GTCAGATA,-0.0446
10,AACGTGTG,-0.222
11,ATGCTAAG,0.0539
12,AAGAGCCT,-0.222
13,ATATTGTC,-0.112
14,CAGACACG,0.0199
15,GCCCAACC,0.0648
16,CTCCAATC,0.0227
17,AGTTGCAA,-0.105
18,AAGACTCA,-0.226
19,AGTAGCAT,-0.0355
20,AAACTTGA,0.0895
21,ACGCACTC,0.0635
22,AAACAGTT,0.134
23,GATTGGCC,-0.151
24,GCTACAGC,0.121
25,ACTGCCGA,0.0702

row,Sequence,PBM E-score
1,CACACAAC,-0.0691
2,ATGCTGCA,0.0246
3,ACTTTTCT,-0.0435
4,GCCCCCCA,0.147
5,CGAGGTAA,-0.261
6,TCCGGCAA,0.139
7,CTTAGGTA,0.164
8,AGAGACCA,-0.11
9,AACGACTA,-0.201
10,AACCCGCT,0.0367
11,ACTGAATA,-0.0291
12,ATAAACAG,0.102
13,CGGTTATC,-0.0703
14,GGTAGATA,0.00026
15,AATAATGG,0.161
16,TAACTAGA,0.136
17,CAATCACG,-0.127
18,TGTAAGAA,-0.0334
19,ACATACGC,0.0234
20,ATGATACA,0.0457
21,AAATACTT,0.0147
22,GGCGTAAC,-0.0809
23,AGGTCCGC,-0.177
24,CGATCGCA,0.084
25,ATGCAGGG,-0.14

row,Sequence,PBM E-score
1,GGACCTGA,-0.0485
2,AAAGCTAA,-0.0138
3,CAGTCGGG,0.0415
4,TACGCACA,-0.106
5,CCACTCGC,-0.0702
6,ACAAATAA,0.185
7,CGCTGGGC,-0.0287
8,CGACCGAC,0.0935
9,TGGGCGAA,-0.197
10,GAACCGGA,0.183
11,TATTCGGA,0.174
12,GAACGCAC,0.0588
13,ACGTCCTA,0.0954
14,CAAAGACA,-0.0364
15,ATCCGTTA,0.107
16,AGTAATCA,0.00608
17,AGGATGCA,0.274
18,TGGCCACA,0.106
19,GTACGCGA,-0.0231
20,GCTATCAC,0.0786
21,TCTCAGCA,0.114
22,ATATCCGG,0.0453
